Reference: PMC12820563, “FoxP3 forms a head-to-head dimer in vivo and stabilizes its multimerization on adjacent microsatellites”
The list shows a part of the results.

Each sequence was assayed against T1, MBP-FoxP1dN (Mus musculus, UniProt P58462 326-579) (assay: PD-seq (MBP pull-down with sequencing); 20 mM Tris-HCl pH 7.5, 100 mM NaCl, 1.5 mM MgCl2, 0.4 uM protein, 0.1 uM dsDNA library, 30 min, room temperature, amylose pull-down; high values mean tight binding). Details: protein: recombinant; tags: His6-MBP; chain copies: 2; dsDNA, one strand shown.
T1 sequence: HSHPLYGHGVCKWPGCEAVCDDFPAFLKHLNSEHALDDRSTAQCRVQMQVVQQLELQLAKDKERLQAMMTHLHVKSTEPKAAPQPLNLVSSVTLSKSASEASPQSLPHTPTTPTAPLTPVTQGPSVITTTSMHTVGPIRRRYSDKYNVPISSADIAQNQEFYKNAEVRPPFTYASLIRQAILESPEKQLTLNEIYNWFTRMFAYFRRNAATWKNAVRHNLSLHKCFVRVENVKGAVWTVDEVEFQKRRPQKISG
Summary of the method: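 The N-terminus-lacking fragment of mouse FoxP3 or FoxP1 carried a His6-MBP tag and was expressed in E. coli. At 0.4 µM it was incubated with 0.1 µM Klenow-filled degenerate double-stranded DNA library for 30 min at room temperature in Tris pH 7.5 buffer with NaCl and MgCl2, and complexes were caught on amylose resin, washed three times, released with proteinase K, PCR-barcoded and Illumina-sequenced. Binding is reads-per-million enrichment of pull-down over input with replicates pooled.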

Sequence | binding signal
GATGATTGTTCTCCCAGCTGATGAATTCACTGATTCGAGTAAACAAATTTTCCTAATCTTTCTGTTCAAGCGCCATCTAC | 0.905 RPM ratio (pull-down/input)
GATGATTGTTCTCCCAGCTGATGAATTAAACGCATCGAGTAAACAAATTTTCCTAATCTTTCTGTTCAAGCGCCATCTAC | 1.26 RPM ratio (pull-down/input)
GATGATTGTTCTCCCAGCTGATGAATTGTGGGGCTCGAGTAAACAAATTTTCCTAATCTTTCTGTTCAAGCGCCATCTAC | 0.838 RPM ratio (pull-down/input)
GATGATTGTTCTCCCAGCTGATGAATTTTTCAATTCGAGTAAACAAATTTTCCTAATCTTTCTGTTCAAGCGCCATCTAC | 0.938 RPM ratio (pull-down/input)
GATGATTGTTCTCCCAGCTGATGAATTTGCTGATTCGAGTAAACAAATTTTCCTAATCTTTCTGTTCAAGCGCCATCTAC | 1.08 RPM ratio (pull-down/input)
GATGATTGTTCTCCCAGCTGATGAATTCAACTTATCGAGTAAACAAATTTTCCTAATCTTTCTGTTCAAGCGCCATCTAC | 0.899 RPM ratio (pull-down/input)
GATGATTGTTCTCCCAGCTGATGAATTTGTACTATCGAGTAAACAAATTTTCCTAATCTTTCTGTTCAAGCGCCATCTAC | 1.22 RPM ratio (pull-down/input)
GATGATTGTTCTCCCAGCTGATGAATTCCGATCCTCGAGTAAACAAATTTTCCTAATCTTTCTGTTCAAGCGCCATCTAC | 0.737 RPM ratio (pull-down/input)
GATGATTGTTCTCCCAGCTGATGAATTATTCCACTCGAGTAAACAAATTTTCCTAATCTTTCTGTTCAAGCGCCATCTAC | 1.05 RPM ratio (pull-down/input)
GATGATTGTTCTCCCAGCTGATGAATTCCCGTAGTCGAGTAAACAAATTTTCCTAATCTTTCTGTTCAAGCGCCATCTAC | 0.816 RPM ratio (pull-down/input)
GATGATTGTTCTCCCAGCTGATGAATTGCCCTTTTCGAGTAAACAAATTTTCCTAATCTTTCTGTTCAAGCGCCATCTAC | 1 RPM ratio (pull-down/input)
GATGATTGTTCTCCCAGCTGATGAATTGACACAGTCGAGTAAACAAATTTTCCTAATCTTTCTGTTCAAGCGCCATCTAC | 1.17 RPM ratio (pull-down/input)
GATGATTGTTCTCCCAGCTGATGAATTACCGCGTTCGAGTAAACAAATTTTCCTAATCTTTCTGTTCAAGCGCCATCTAC | 1.04 RPM ratio (pull-down/input)
GATGATTGTTCTCCCAGCTGATGAATTTAGTGTGTCGAGTAAACAAATTTTCCTAATCTTTCTGTTCAAGCGCCATCTAC | 1.09 RPM ratio (pull-down/input)
GATGATTGTTCTCCCAGCTGATGAATTTGAGTTTTCGAGTAAACAAATTTTCCTAATCTTTCTGTTCAAGCGCCATCTAC | 1.01 RPM ratio (pull-down/input)
GATGATTGTTCTCCCAGCTGATGAATTCGGATGATCGAGTAAACAAATTTTCCTAATCTTTCTGTTCAAGCGCCATCTAC | 0.833 RPM ratio (pull-down/input)

Sequence | binding signal
GATGATTGTTCTCCCAGCTGATGAATTGCATCGCTCGAGTAAACAAATTTTCCTAATCTTTCTGTTCAAGCGCCATCTAC | 1.13 RPM ratio (pull-down/input)
GATGATTGTTCTCCCAGCTGATGAATTCGACTTATCGAGTAAACAAATTTTCCTAATCTTTCTGTTCAAGCGCCATCTAC | 0.872 RPM ratio (pull-down/input)
GATGATTGTTCTCCCAGCTGATGAATTCGCAAGTTCGAGTAAACAAATTTTCCTAATCTTTCTGTTCAAGCGCCATCTAC | 0.848 RPM ratio (pull-down/input)
GATGATTGTTCTCCCAGCTGATGAATTAGTGATTTCGAGTAAACAAATTTTCCTAATCTTTCTGTTCAAGCGCCATCTAC | 1.19 RPM ratio (pull-down/input)
GATGATTGTTCTCCCAGCTGATGAATTAACCCAGTCGAGTAAACAAATTTTCCTAATCTTTCTGTTCAAGCGCCATCTAC | 0.834 RPM ratio (pull-down/input)
GATGATTGTTCTCCCAGCTGATGAATTTAGAATGTCGAGTAAACAAATTTTCCTAATCTTTCTGTTCAAGCGCCATCTAC | 1.05 RPM ratio (pull-down/input)
GATGATTGTTCTCCCAGCTGATGAATTAGATTAGTCGAGTAAACAAATTTTCCTAATCTTTCTGTTCAAGCGCCATCTAC | 0.868 RPM ratio (pull-down/input)
GATGATTGTTCTCCCAGCTGATGAATTTACTCCTTCGAGTAAACAAATTTTCCTAATCTTTCTGTTCAAGCGCCATCTAC | 1.29 RPM ratio (pull-down/input)
GATGATTGTTCTCCCAGCTGATGAATTACTATTGTCGAGTAAACAAATTTTCCTAATCTTTCTGTTCAAGCGCCATCTAC | 2.38 RPM ratio (pull-down/input)
GATGATTGTTCTCCCAGCTGATGAATTTCGGGCATCGAGTAAACAAATTTTCCTAATCTTTCTGTTCAAGCGCCATCTAC | 0.959 RPM ratio (pull-down/input)
GATGATTGTTCTCCCAGCTGATGAATTGAAAAAATCGAGTAAACAAATTTTCCTAATCTTTCTGTTCAAGCGCCATCTAC | 1.03 RPM ratio (pull-down/input)
GATGATTGTTCTCCCAGCTGATGAATTTGGGTCCTCGAGTAAACAAATTTTCCTAATCTTTCTGTTCAAGCGCCATCTAC | 0.846 RPM ratio (pull-down/input)
GATGATTGTTCTCCCAGCTGATGAATTTCCATCCTCGAGTAAACAAATTTTCCTAATCTTTCTGTTCAAGCGCCATCTAC | 0.827 RPM ratio (pull-down/input)
GATGATTGTTCTCCCAGCTGATGAATTCTCTTTGTCGAGTAAACAAATTTTCCTAATCTTTCTGTTCAAGCGCCATCTAC | 0.834 RPM ratio (pull-down/input)
GATGATTGTTCTCCCAGCTGATGAATTTGTCAGCTCGAGTAAACAAATTTTCCTAATCTTTCTGTTCAAGCGCCATCTAC | 0.895 RPM ratio (pull-down/input)
